The values below come from PubChem BioAssay AID485344 (National Center for Advancing Translational Sciences (NCATS), 2010).

The whole screen tested about 340,000 compounds, of which about 6,900 (2%) were called active. No stated cut-off is given here; in the data, active means inhibition above about 30%; inactive means below that, where a call was filed. This is a selection; strong and weak results do not stand in their true shares. Entries without a call were filed so in the source.

Sequence of UniProt P14416 (P14416 whole entry, looked up): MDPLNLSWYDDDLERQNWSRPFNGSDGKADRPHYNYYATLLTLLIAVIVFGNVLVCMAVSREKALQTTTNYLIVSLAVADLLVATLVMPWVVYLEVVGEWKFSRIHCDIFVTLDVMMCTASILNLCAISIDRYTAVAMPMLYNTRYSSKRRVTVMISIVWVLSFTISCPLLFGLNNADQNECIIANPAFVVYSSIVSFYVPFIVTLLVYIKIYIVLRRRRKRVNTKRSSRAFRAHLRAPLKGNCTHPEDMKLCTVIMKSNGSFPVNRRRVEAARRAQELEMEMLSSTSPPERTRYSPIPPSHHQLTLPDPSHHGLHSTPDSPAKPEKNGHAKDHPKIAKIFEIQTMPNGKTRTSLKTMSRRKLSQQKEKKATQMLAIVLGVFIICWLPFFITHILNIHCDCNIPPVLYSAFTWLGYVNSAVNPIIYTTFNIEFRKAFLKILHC

This test addresses D(2) dopamine receptor (Homo sapiens) (UniProt P14416). Briefly: HTS Assay for Allosteric Antagonists of the Human D2 Dopamine Receptor: Primary Screen for Antagonists. Further: 0% is about no effect. To be noted: HEK293 TREx D2 cells, calcium flux, dopamine EC80; at 10 µM; stronger effect = higher value. The gist of the method:
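Calcium mobilization kinetics were recorded at 1 s intervals in tetracycline-induced HEK293 T-REx D2 cells, first for 180 s after compound addition and then 180 s after EC80 dopamine.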
Background: Calcium flux is commonly read through the fluorescence of an indicator in the cells.
`CCc1ccccc1N(CC)C(=O)c1c(C)oc2ncn(C)c(=O)c12`: the inhibition was -1.16%.
To `COc1ccc(-n2ccnc2SCC(=O)Nc2ccc3c(c2)OCO3)cc1` belongs 0.369%.
For `CC(C)(C)C1CCc2c(sc(NC(=O)Cn3nnc(-c4ccccc4Cl)n3)c2C#N)C1` (stereo not given) the value was 2.33%; for `Cc1cccc(N2CCN(C(=O)CS(=O)(=O)c3cccc4nsnc34)CC2)c1C`, -4.9%; for `Cc1ccc(Cl)cc1N1CCN(C(=O)C2CCC(CNS(=O)(=O)c3cccs3)CC2)CC1` (stereo not given), 2.93%.
Regarding `CCOC(=O)c1c(C)[nH]c(C)c1S(=O)(=O)N1CCC(C(=O)Nc2cc(C)ccn2)CC1`, the inhibition was 10.3%.
For the compound `Cc1ccc(CNc2ccc(-c3nc(-c4ccncc4)no3)cc2[N+](=O)[O-])cc1`, the inhibition was determined as 15.4%.
To `COc1ccc(OC)c(C(=O)CC2(O)C(=O)N(Cc3ccccc3C)c3ccccc32)c1` (stereo not given) belongs -15.9%; to `CCOc1ccccc1CNC(=O)CCc1c(C)nn(-c2ccc(N3CCCC3)nn2)c1C`, 18.5%.
As to `O=C(CCC(=O)Nc1ccc(F)cc1)N/N=C/c1ccccc1O`, the inhibition is active: 33.5%.
To `Cc1ccc(S(=O)(=O)C2(C(=O)Nc3ccc(Cl)c(C(F)(F)F)c3)CC2)cc1` belongs -7.4%.
For `CCOC(=O)c1cccc(NC(=O)CCS(=O)(=O)c2ccc3c(c2)CC(=O)N3C)c1` the value was -0.418%; for `Cc1c(C(=O)N2CCOCC2)oc2c1-c1nn(CC(=O)NCc3cccc(F)c3)cc1CC2`, -5.51%.
Regarding `COC(=O)c1ccc(Cl)cc1NC(=O)NCCc1c(C)nn(C)c1C`, the inhibition came to 12.8%.
For `CC(C)c1ccc(NC(=O)Cn2c(=O)n(CC3CCC(C(=O)NCCc4ccccc4)CC3)c(=O)c3ccccc32)cc1` (stereo not given) the value was -15.9%; for `Cc1ccc(S(=O)(=O)Nc2ccc3c(c2)nc(CCN2CCN(c4ccccn4)CC2)n3C)cc1`, active: 51.2%; for `COc1ccccc1CNC(=O)Cn1c(=O)nc(-c2ccccc2F)c2cc(Cl)ccc21`, 7.35%.
For `Cc1ccc(-n2c(=O)c3cccnc3n2CC(=O)Nc2cc(C)cc(C)c2)cc1` the value was 1.97%; for `COc1cc(OC)cc(C(=O)Nc2cc3c(cc2N2CCOCC2)n(C)c(=O)n3C)c1`, -9.02%; for `COc1ccc(-n2nc3cc(C)c(NC(=O)c4ccc(-c5ccc(Br)cc5)o4)cc3n2)cc1`, -9.66%.
`CC(=O)N1CCCc2cc(S(=O)(=O)N3CCCC(C(=O)Nc4ccc(C)cc4C)C3)ccc21` (stereo not given): the inhibition was -7.41%.
Take `COc1ccc(-c2cc(C(F)(F)F)nc(N3CCN(C)CC3)n2)cc1`: the inhibition was active: 39.3%.
For `Cc1cccc(NC(=O)CN2C(=O)C(c3ccccc3)=NC23CCC(C)CC3)c1` (stereo not given), the inhibition was -6.38%.
For `CC(=O)c1cccc(-n2c(=O)c3c4c(sc3n(Cc3cccc(C)c3)c2=O)CN(C(C)=O)CC4)c1` the value was 7.24%.
Take `Cc1cc(C)n(CCc2nc3c4ccccc4nc(N4CCN(c5cccc(C)c5C)CC4)n3n2)n1`: the inhibition is -6.34%.
To `CCn1cc2nc(SCC(=O)Nc3ccc(C)cc3)n(Cc3ccc(C)cc3)c(=O)c2n1` belongs -5.64%; to `Cc1[nH]c2ccc(Br)cc2c1CCNC(=O)c1cc2ccccc2oc1=O`, 11.6%; to `COC(=O)CN1C(=O)C(C)(C)c2cc(S(=O)(=O)Nc3ccc(Br)cc3F)ccc21`, -5.06%.
To `Cc1cc(F)ccc1Oc1cc(NN2CCCCC2)c([N+](=O)[O-])cc1[N+](=O)[O-]` belongs active: 30.4%; to `CCN(CC)c1ccc(NC(=O)CN2CCN(c3ccccc3F)CC2)cc1`, 7.74%; to `CCOc1ccc(C2=NC(c3cccs3)=Nc3ccc(CC)cc3N2)cc1OCC`, 3.77%.
To `Cc1ccc(CCNC(=O)c2ccc3[nH]c(C)c(C)c3c2)cc1` belongs 23.5%.
Take `Cc1cc(C)cc(-n2cnc3cc(C(=O)NC4CCCCCC4)ccc32)c1`: the inhibition is -12%.
For `Cc1cc(OCC(=O)NC2CCN(Cc3ccccc3)CC2)c2c(C)cc(=O)oc2c1` the value was active: 54.3%.
Regarding `COc1ccc(CCNC(=O)c2cc3n(n2)CCCN(Cc2ccc(C)cc2)C3=O)cc1OC`, the inhibition was 2.26%.
To `O=C(NCCN1CCN(c2cccc(Cl)c2)CC1)c1ccc(CSc2nc3ccncc3[nH]2)cc1` belongs active: 86.2%; to `CCCCN(C)CCCNC(=O)C1CCN(S(=O)(=O)CC)CC1`, -26.5%; to `Cc1c2cnn(CC(=O)N3CCN(c4ccccc4)CC3)c(=O)c2c(C)n1Cc1ccccc1Cl`, 20.9%.
With `CSc1ncc(Cl)c(C(=O)Nc2ccc(S(=O)(=O)Nc3nccc(C)n3)cc2)n1`, the inhibition is -0.934%.
For `CCOC(=O)C1(CC2CC2)CCN(Cc2ccc3cccc(F)c3n2)CC1` the value was active: 65.2%.
Regarding `CCCCN(C)CCCNC(=O)CN1N=C(c2ccc(OC)cc2)CCC1=O`, the inhibition was -19.9%.
For `CC(=O)C1=C(c2ccccc2)N(C(C)=O)n2c(nnc2C2CCCCC2)S1` the value was 10.7%; for `CC(=O)c1ccc(NC(=O)CCc2c(C)nc3c(c2C)c(=O)n(C)c(=O)n3C)cc1`, -0.137%.
For `COc1ccc(NC(=O)c2cc(C)nc3c2c(C)nn3-c2ccc(C)cc2)cc1OC` the value was 7.02%; for `CCOc1ccc(NC(=O)CN2CCN(S(=O)(=O)c3ccc(OC)cc3)CC2)cc1`, 3.99%.
For `CCOc1cc(OCC)cc(C(=O)Nc2cccc(-c3nc4ccccc4[nH]3)c2)c1` the value was 13.3%; for `C=CCC(CC=C)(CNC(=O)C(=O)Nc1ccc(C)cc1)c1ccccc1`, -12.5%.
For the compound `COc1cccc(Cn2c(=O)n(-c3cccc(Cl)c3)c(=O)c3c4c(sc32)CN(C(C)=O)CC4)c1`, the inhibition came to 2.65%.
For `COc1ccccc1-c1nnc(C2CCN(C(=O)c3cccc(C)c3)CC2)o1`, the inhibition was 4.6%.
For `O=C(NCc1ccccc1)C(=O)NCC(c1ccco1)S(=O)(=O)c1ccc(Cl)cc1` (stereo not given) the value was 1.24%; for `CCn1c(=O)cc(OCC(=O)NCc2ccccc2OC)c2ccccc21`, -2.05%; for `Cc1ccccc1Nc1nn2c(=O)c3ccc(C(=O)NCc4ccccc4)cc3nc2s1`, 6.72%.
For `CCc1nc2c(cnn2-c2ccc(C)cc2)c(=O)n1Cc1ccccc1` the value was -5.44%.
For `CCOC(=O)N1CCc2c(sc3c2c(=O)n(Cc2ccccc2)c(=O)n3Cc2cccc(C)c2)C1` the value was 7.66%; for `Cc1ccc(-c2onc(C)c2C)cc1S(=O)(=O)NCc1ccc(N(C)C)cc1`, 7.78%; for `CCc1ccc(NC(=O)Cn2c(=O)n(CCCCC(=O)NCc3ccccc3Cl)c(=O)c3ccccc32)cc1`, -5.36%.
Turning to `Cc1ccc(NC(=O)c2oc3ccccc3c2NC(=O)Cc2ccccc2)cc1`, the inhibition was 6.61%.
In the case of `Cc1cc(C)c(C)c(OCCCCN(C)Cc2ccccc2)c1`, the inhibition was active: 30.6%.
In the case of `CCOc1ccc(S(=O)(=O)N2CCN(c3cccc(C(F)(F)F)c3)CC2)cc1OCC`, the inhibition is 5.33%.
For `COc1ccc2c(c1)CCc1sc(NC(=O)c3cccc(Br)c3)nc1-2` the value was 8.47%; for `Cc1cc(C)c(NC(=O)C2CCCN(S(=O)(=O)c3c(C)noc3/C=C/N(C)C)C2)c(C)c1` (stereo not given), active: 33.4%; for `COc1ccccc1NC(=O)CSC1=Nc2ccccc2C2=NC(Cc3ccccc3)C(=O)N12` (stereo not given), -14.6%.
For the compound `CCN(CC)CCNC(=O)C(=O)NCC(c1ccc2c(c1)OCO2)N1CCOCC1` (stereo not given), the inhibition came out at 2.58%.
As to `COCc1cc(C)nc2c1C(=O)NC(c1ccc(C)cc1)N2Cc1ccccc1` (stereo not given), the inhibition was -22.4%.
For `O=C(CSc1cn(CC(=O)N2CCCCC2)c2ccccc12)NCc1ccccc1` the value was 9.08%; for `CCCN1C(=O)c2[nH]nc(-c3ccccc3)c2C1c1cccc(O)c1` (stereo not given), -9.62%.
For `CCOc1ccc(-c2nnc(SCC(=O)NCc3ccccc3Cl)o2)cc1` the value was -15.5%.
To `O=C(Cn1cc(SCc2c(F)cccc2Cl)c2ccccc21)N1CCCCC1` belongs 9.2%; to `Cn1c(=O)n(Cc2ccccc2)c(=O)c2c1nc1n2CCN1c1ccccc1`, 5.92%; to `CCN(CC)CCNC(=O)CN1N=C(c2ccc(OC)cc2)CCC1=O`, 6.77%.
Consider `Cc1cccn2cc(-c3cccc(NC(=O)C(C)C)c3)nc12`, for which the inhibition was 6.65%.
To `Cc1cc(Cl)ccc1OCC(=O)N(Cc1sccc1C)C1CCS(=O)(=O)C1` (stereo not given) belongs 4.04%.
Turning to `CCC(=O)Nc1ccc2nc(SCCOc3ccc(C)cc3OC)sc2c1`, the inhibition came to 2.97%.
To `CCn1c(=O)cc(OCC(=O)N2CCN(c3ccc(C)cc3)C(C)C2)c2ccccc21` (stereo not given) belongs -10.2%; to `CC(=O)c1ccc(NC(=O)CSc2nc(-c3ccc(C)cc3)nc3c2c(=O)n(C)c(=O)n3C)cc1`, 0.653%.
For `CCCOc1cccc(C(=O)N(Cc2sccc2C)C2CCS(=O)(=O)C2)c1` (stereo not given), the inhibition was -16.7%.
For `COc1ccc(CNC(=O)c2cnc(N(C)C)nc2)cc1` the value was 3.71%; for `CC(C)OCCCNC(=O)CN1C(=O)c2cccnc2Sc2ccccc21`, 0.217%; for `CCCCOc1ccc(C(=O)N2CCCCC2CCN2CCOCC2)cc1` (stereo not given), 7.1%.
Turning to `CC1CCC(NC(=O)c2ccc(CS(=O)(=O)c3ccc(Cl)cc3)o2)CC1` (stereo not given), the inhibition turned out to be 10.2%.
On to `CCN(CC)S(=O)(=O)c1ccc(C(=O)NCCSc2c(-c3ccc(F)cc3)[nH]c3ccccc23)cc1`, for which the inhibition is -3.39%.
To `Cc1ccc(-c2cn3cccnc3n2)cc1NC(=O)Nc1ccc(F)cc1` belongs -14.6%.
To `O=C1CSC(c2cccc([N+](=O)[O-])c2)N1Cc1ccccc1` (stereo not given) belongs active: 30.3%; to `CC(C)(C)OC(=O)N1CCC(c2c(C(=O)N3CCN(c4ccccn4)CC3)cnn2-c2ccc(F)cc2)CC1`, 12.1%.
To `COc1ccc2c(c1)c(=O)c(S(=O)(=O)c1ccc(F)cc1)cn2Cc1ccccc1Cl` belongs -4.82%; to `COc1cccc2c(C)cc3nnc(SCC(=O)Nc4ccc(C)cc4)n3c12`, 0.186%.
For `COCCNC(=O)CN1C(=O)c2cccnc2Sc2ccccc21`, the inhibition came out at 19.9%.
To `O=C(Cn1ncc2c1-c1ccccc1OC2)N1CCN(c2ccccc2)CC1` belongs -2.55%.
For `O=C(c1ccc2c(c1)OCO2)c1cn(Cc2ccc(Cl)cc2)c2ccc(F)cc2c1=O` the value was -9.38%.
To `COCCNC(=O)c1sc2ncccc2c1-n1c(C)ccc1C` belongs 20.2%.
Turning to `COc1cc(NC(=O)C2CCN(S(=O)(=O)Cc3ccccc3)CC2)c(OC)cc1Cl`, the inhibition was 0.26%.
For `CCC(C)n1c(=O)c2sccc2n2c(CCCC(=O)NCc3ccccc3Cl)nnc12` (stereo not given), the inhibition amounted to 2.61%.
For the compound `Cc1cccc(N(C)S(=O)(=O)c2nnc(NC(=O)c3cccs3)s2)c1`, the inhibition was -9.63%.
For `CCCCCOC(=O)NCCOC(=O)Nc1ccc(C(=O)OCC)cc1` the value was active: 33%; for `Cc1ccc(-c2nnc(NC(=O)Cc3ccc(F)cc3)o2)c(C)c1`, active: 66.8%.

As a reminder, the inhibition is the relative decrease from the control value, in per cent.
